# About 65 (0.1%) of roughly 45,000 compounds were called active. The call rests on the fitted dose curve; in most records, active means well fitted activation curve with a large enough effect; inconclusive means small, poorly fitted or top-dose-only effect; inactive means no such curve, though single readings can be large or run the other way. The list shows a part of the results.
# Target: Galactocerebrosidase (Homo sapiens) (UniProt P54803)
# Assay: A Novel Cell-Based Assay to Identify Small Molecules for B -Galactocerebrosidase; further: nearly all actives have a fitted effect of over 65% in size; on activation: 0% is about no effect
# Conditions: 145M-Twi-hGALC-G270D cells (Twitcher mouse brain line with human GALC G270D), HMU-beta-Gal fluorescence, 48 h; series mostly up to 57.5 µM; activation: at the top concentration
# Procedure, shortened: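 Brain-derived Twitcher mouse 145M-Twi cells stably expressing human GALC-G270D or wild-type GALC, treated live, then residual GALC activity read by fluorescence of HMU-b-Gal substrate (0.1 mM final) in citrate-phosphate buffer pH 5.2 with sodium taurocholate. Signal increase indicates enhancement.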
# Potency means the concentration at half of the fitted maximal effect.
# Sequence of UniProt P54803 (P54803 whole entry, looked up): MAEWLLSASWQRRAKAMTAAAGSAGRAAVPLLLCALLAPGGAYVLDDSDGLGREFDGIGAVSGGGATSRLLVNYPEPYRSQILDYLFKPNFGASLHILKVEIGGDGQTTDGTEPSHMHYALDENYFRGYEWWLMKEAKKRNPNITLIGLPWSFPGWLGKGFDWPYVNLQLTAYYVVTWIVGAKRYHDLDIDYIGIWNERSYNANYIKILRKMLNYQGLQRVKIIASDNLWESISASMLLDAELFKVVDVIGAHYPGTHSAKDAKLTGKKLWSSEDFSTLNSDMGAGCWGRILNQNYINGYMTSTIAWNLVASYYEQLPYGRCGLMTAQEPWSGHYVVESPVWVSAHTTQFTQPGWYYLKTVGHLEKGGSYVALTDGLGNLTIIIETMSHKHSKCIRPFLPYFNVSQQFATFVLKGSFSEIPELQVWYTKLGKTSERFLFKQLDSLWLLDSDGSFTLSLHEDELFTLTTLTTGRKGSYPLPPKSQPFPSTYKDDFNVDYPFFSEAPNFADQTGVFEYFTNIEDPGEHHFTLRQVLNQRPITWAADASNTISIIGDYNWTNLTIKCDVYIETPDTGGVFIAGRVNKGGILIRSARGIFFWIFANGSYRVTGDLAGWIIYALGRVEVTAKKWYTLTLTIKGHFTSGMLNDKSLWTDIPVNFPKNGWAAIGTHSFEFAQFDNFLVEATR
Structure (SMILES),activation,Potency
CCSc1nc2c([nH]c3ccccc32)c(=O)n1-c1ccc(F)cc1,inactive: -2.76%,–
Cc1cc(C)c2c(n1)sc1c(=O)n(-c3ccccc3C(F)(F)F)nnc12,inactive: 2.56%,–
Nc1c2ccccc2nc2ccccc12,inactive: -14.2%,–
Cc1cccc(C(C)C)c1NC(=O)C(NS(=O)(=O)c1cccc2nsnc12)c1ccccc1 (centres undefined),inactive: -13.1%,–
Cc1ccc(OCCSc2nc3ccc(NC(=O)c4ccc(F)cc4)cc3s2)cc1,inactive: -11%,–
CCOC(=O)C(CC)Sc1c(CC)cnc2c1c(=O)n(C)c(=O)n2C (centres undefined),inactive: -5.09%,–
COc1cccc(-c2cn3ncsc3n2)c1,inactive: -11.9%,–
Cc1ccc(Cc2cn3cc(-c4ccc(F)cc4)nc3s2)cc1,inactive: -1.89%,–
COc1ccc(-c2c(C)c3ccc(O)c(CN4CCCC4)c3oc2=O)cc1OC,–,active: 39.8 µM
Cc1cccc(NC(=O)c2cc(S(=O)(=O)N3CCCCCC3)cn2C)c1C,inactive: 0.926%,–
Cc1cc(C)n(-c2nc(C)c(C)c(=O)n2CC(=O)Nc2ccc(OC(F)(F)F)cc2)n1,inactive: -18.3%,–
Cc1ccc(NC(=O)Cn2cc(C(=O)C3CC3)c3ccccc32)cc1C,inactive: -17.2%,–
Cc1ccccc1CSc1ccc(-c2cccs2)nn1,inactive: 7.14%,–
COc1ccc(OCc2nc(-c3ccc(-n4cccc4)cc3)no2)cc1,inactive: -5.83%,–
CN1CCC(=C2c3ccccc3Sc3ccccc32)CC1,inactive: -10.7%,–
Cc1nn(CC(=O)NC2CCC(C)CC2)c(=O)c2c1sc1ccccc12 (centres undefined),inactive: -2.45%,–
Cc1cc(C)c(Nc2ncnc3c2cnn3C)c(C)c1,inactive: -14%,–
Cc1ccc(NC(=O)CCc2c(C)nc3c(-c4ccc(F)cc4)c(C)nn3c2C)cc1F,inactive: -15.5%,–
Cc1ccc2oc(-c3ccc(NC(=O)CCC(=O)O)cc3)nc2c1,inactive: -18.6%,–
CCn1cc2nc(SCC(=O)Nc3cc(OC)cc(OC)c3)n(Cc3ccc(Cl)cc3)c(=O)c2n1,inactive: -4.19%,–
COc1cc(NC(=O)CN2CCN(c3ccc(F)cc3)CC2)cc(OC)c1,inactive: -18.6%,–
CCOc1ccc(NC(=O)c2sc3nc4n(c(=O)c3c2C)CCC4)cc1,inactive: -8.37%,–

Structure (SMILES),activation,Potency
COC(=O)N1CCCc2cc(S(=O)(=O)NCc3ccccc3)ccc21,inactive: 3.58%,–
O=C(/C=C/c1ccccc1Cl)N1CCC(c2nc3ccccc3o2)CC1,inactive: -8.3%,–
COc1ccc(C2CC(=O)Nc3c2c(=O)[nH]c2nc4ccccc4n32)cc1 (centres undefined),inactive: -9.13%,–
Cc1cccc(C)c1NC(=O)c1ccc2c(c1)nnn2C1CCCC1,inactive: -15%,–
CCOc1cc(-c2ccc(OC(=O)c3ccccc3Cl)c(OC)c2)cc(=O)c2c(C)oc(C)c12,inactive: -6.78%,–
COc1ccc(-c2nn3c(=O)cc(CN4CCN(C(=O)/C=C/c5ccccc5)CC4)nc3s2)cc1,inactive: -4.36%,–
CC(=O)c1ccc(N2CCN(S(=O)(=O)c3ccc(-c4coc(C)n4)cc3)CC2)cc1,inactive: -22.2%,–
Cc1cc(C)cc(NC(=O)CSc2nc3c(c(=O)[nH]2)CN(Cc2ccc(F)cc2)CC3)c1,inactive: -17%,–
CCn1cc(C(=O)Nc2cccc(Cl)c2)c2cc(OC)c(OC)cc2c1=O,inactive: 0.0587%,–
CCCCN(CC)CCNC(=O)C1CCN(S(=O)(=O)c2cccc3nsnc23)CC1,inactive: -12.2%,–
CCNC(=O)c1ccc(NC(=O)N2CCCCc3ccccc32)cc1,inactive: -6.42%,–
COc1ccccc1N1CCN(C(=O)Cn2c(=O)n3nc(-c4cccc(F)c4)nc3c3ccccc32)CC1,inactive: -6.33%,–
Cc1ccccc1COC(=O)c1nn(-c2ccccc2)nc1N,inactive: -10.2%,–
COc1ccc(-c2cnc(C)o2)cc1S(=O)(=O)Nc1ccc(NC(C)=O)cc1,inactive: -16.3%,–
O=C(CSc1nccn1-c1cccc(Cl)c1)Nc1ccc2c(c1)OCO2,inactive: -7.1%,–
CCN(C(=O)C1CCN(S(=O)(=O)c2cc(Br)cc3c2N(C(C)=O)CC3)CC1)c1cccc(C)c1,inactive: -10.8%,–
CCC(=O)C1=C(c2ccc(F)cc2)N(C(=O)CC)n2c(nnc2-c2ccc(OC)cc2)S1,inactive: -13.2%,–
Cn1c(=O)oc2cc(S(=O)(=O)CCC(=O)N3CCN(c4ccccc4F)CC3)ccc21,inactive: -12.5%,–
O=C(CCn1c(=O)c2cccn2c2cccnc21)N1CCN(c2ccccc2)CC1,inactive: -11.7%,–
CCc1nn(CC(=O)N2CCN(c3ccc(OC)cc3)CC2)c(=O)c2cc3sccc3n12,inactive: 1.63%,–
CC[C@@]1(c2ccccc2)NC(=O)N(C)C1=O,inactive: -13.8%,–
CC(CCc1ccccc1)NC(=O)Cn1ncc2c3ccccc3n(Cc3ccccc3F)c2c1=O (centres undefined),inactive: -8.27%,–

Structure (SMILES),activation,Potency
Cc1nc2ccccc2c(=O)n1-c1ccc(NC(=O)c2ccccc2[N+](=O)[O-])cc1,inactive: -5.84%,–
CCN(Cc1ccccc1)C(=O)Cn1c(=O)n(-c2ccccc2)c(=O)c2c1c1cc(C)ccc1n2C,inactive: -9.29%,–
O=C(CSc1nc(=O)[nH]c2c1CCC2)NCc1ccccc1Cl,inactive: -9.65%,–
CCc1ccc(CSc2nc(-c3ccccc3F)nc3c2Cc2c(CO)cnc(C)c2O3)cc1,inactive: -15.2%,–
Cc1ccc(-c2cc(C(=O)Oc3ccc(C#N)cc3)no2)cc1,inactive: -5.26%,–
CCn1c(SCC(=O)Nc2ccccc2C(=O)OC)nc2ccsc2c1=O,inactive: -8.56%,–
CCC(=O)NNc1ncnc2c1cnn2-c1ccc(C)c(Cl)c1,inactive: -7.58%,–
CCC(C)NC(=O)c1nn(-c2ccc(C)cc2)nc1CO (centres undefined),inactive: 6.13%,–
COc1ccc(OC(=O)c2nc(SCc3ccccc3F)ncc2Cl)cc1,inactive: -12.3%,–
Cc1ccc(NC(=O)Cn2c(=O)n(Cc3ccco3)c(=O)c3oc4ccccc4c32)cc1C,inactive: -17.7%,–
O=C(Nc1ccc2nc(SCC(=O)N3CCOCC3)sc2c1)c1cccc(Br)c1,inactive: -11%,–
Cc1cccc(CNC(=O)C2CCC(CNS(=O)(=O)c3ccc4c(c3)CCCC(=O)N4)CC2)c1 (centres undefined),inactive: -15%,–
CC(C)(C)c1ccc(C(=O)NCC(c2cccnc2)N2CCc3ccccc3C2)cc1 (centres undefined),inactive: -24.3%,–
Cc1cccc(CN2C(=O)c3ccccc3Sc3ccc(C(=O)NC4CCCCC4)cc32)c1,inactive: -11.2%,–
Cc1cccc(-c2nc(C)c(CCNC(=O)C(=O)Nc3ccccc3C#N)s2)c1,inactive: -8.75%,–
COc1ccc(-n2nnnc2C2CCN(S(=O)(=O)c3ccc(NC(C)=O)cc3)CC2)cc1,inactive: -2.03%,–
CCn1c(=N)c(C(=O)NCc2ccccc2)cc2c(=O)n3cccc(C)c3nc21,inactive: -9.36%,–
COc1ccc(Cl)cc1S(=O)(=O)NCc1ccc2c(c1)CCN2C(=O)c1cccc(C)c1,inactive: -16.6%,–
CC(C)c1ccc(C2NC(=O)c3n[nH]c(-c4cccs4)c32)cc1 (centres undefined),inactive: -8.96%,–
Cc1ccc(NC(=O)CCC(=O)N2Cc3ccccc3Oc3ncccc32)c(C)c1,inactive: -7.84%,–

# — PubChem BioAssay AID1159614 (National Center for Advancing Translational Sciences (NCATS), 2016)
